# Assay results reported in PubChem BioAssay AID2147 (National Center for Advancing Translational Sciences (NCATS), 2009).
# Among all 230,000 compounds or so, about 3,600 (1.6%) were called active. The shares of active, inactive and inconclusive entries below differ from those in the screen. Calls come from the whole dose curve; as a rule, active = well fitted inhibition curve with a large enough effect (not every such curve was filed as active); inconclusive = small, poorly fitted or top-dose-only effect, or another doubt; inactive = no such curve, though single readings can be large or run the other way. Potencies beside an inconclusive call are fits to weak or partial responses and may not hold up.
# Target: Lysine-specific demethylase 4E (Homo sapiens) (UniProt B2RXH2)
# Chain of UniProt B2RXH2 (B2RXH2 whole entry, looked up, the tested form may be a part): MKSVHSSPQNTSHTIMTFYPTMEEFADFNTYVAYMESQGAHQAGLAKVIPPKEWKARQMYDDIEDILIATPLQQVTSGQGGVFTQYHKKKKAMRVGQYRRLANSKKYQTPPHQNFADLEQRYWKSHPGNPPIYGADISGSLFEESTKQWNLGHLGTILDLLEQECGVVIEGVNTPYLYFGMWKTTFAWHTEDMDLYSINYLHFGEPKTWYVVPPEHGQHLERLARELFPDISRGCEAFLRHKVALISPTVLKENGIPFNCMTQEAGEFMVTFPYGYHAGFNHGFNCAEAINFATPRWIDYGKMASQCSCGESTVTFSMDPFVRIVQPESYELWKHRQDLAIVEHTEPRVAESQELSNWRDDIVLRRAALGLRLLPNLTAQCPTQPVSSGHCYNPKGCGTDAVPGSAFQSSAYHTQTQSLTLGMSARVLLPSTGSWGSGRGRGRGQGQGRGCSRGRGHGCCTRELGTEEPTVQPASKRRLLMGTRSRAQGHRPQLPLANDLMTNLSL
# Assay: qHTS Assay for Inhibitors of Human Jumonji Domain Containing 2E (JMJD2E)
# Settings: JMJD2E catalytic domain, FDH-coupled NADH fluorescence (FDH is formaldehyde dehydrogenase); series mostly up to 57.1 µM; activity change, negative = inhibition: at the top concentration
# Note: nearly all actives have a fitted effect of over 50% in size.
# Potency is the fitted concentration of half-maximal effect; tags give direction and shape of the fitted curve.
# 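Throughout, for activity change, negative = inhibition: 0% = wells with enzyme and -100% = buffer wells without enzyme.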
SMILES,Potency,"activity change, negative = inhibition"
Cc1ccc(S(=O)(=O)c2c(N)n(Cc3ccco3)c3nc4ccccc4nc23)cc1,"inconclusive: 28.2 µM [inhibitor, partial curve]",–
COc1cccc(-c2cc(=O)c3ccccc3o2)c1N,inactive,–
CCOc1cc(/C=N/NC(=O)CNc2cccc(C)c2)ccc1OC(=O)c1ccccc1,–,inactive: 0.194%
CCOc1ccc2c(c1)C(C)=CC(C)(C)N2C(=O)Nc1ccccc1,"inconclusive: 28.2 µM [inhibitor, partial curve]",–
CC(=O)c1cccc(NC(=O)C(OC(=O)/C=C/c2ccc3c(c2)OCO3)c2ccccc2)c1 (stereo not given),"inconclusive: 28.2 µM [inhibitor, partial curve]",–
O=C(Nc1ccccc1C(=O)OCc1nnc(-c2ccccc2)o1)c1ccco1,"inconclusive: 28.2 µM [inhibitor, single point]",–
COCC(C)OC(=O)C(C#N)c1nc2ccccc2nc1N1CCN(Cc2ccccc2)CC1 (stereo not given),–,inactive: -29.4%
CCOc1cc(/C=C/c2ccc3cccc([N+](=O)[O-])c3n2)cc(Cl)c1O,–,inactive: 1.71%
Cc1cc(C)c2nc(-c3ccccn3)cc(C(=O)Nc3cc(C)on3)c2c1,"inconclusive: 22.4 µM [inhibitor, partial curve]",–
COC(=O)c1ccccc1NC(=O)Nc1ccc(Br)cn1,"inconclusive: 39.8 µM [inhibitor, single point]",–
Cc1nn(CC(C)C)c(=S)[nH]c1=O,–,inactive: -0.591%
COc1ccc(C(=O)NCCN2C(=O)S/C(=C\c3cccnc3)C2=O)c(OC)c1OC,–,inactive: -0.292%
Cc1ccc(S(=O)(=O)c2c(N)n(/N=C/c3ccco3)c3nc4ccccc4nc23)cc1,"inconclusive: 22.4 µM [inhibitor, partial curve]",–
Fc1ccc(NC(=S)Nc2cccnc2)cc1Cl,"inconclusive: 28.2 µM [inhibitor, partial curve]",–
Cn1c(-c2ccc(F)cc2)cnc1NCc1cccc(F)c1,"inconclusive: 12.6 µM [inhibitor, partial curve]",–
CCOC(=O)C1=C(O)C(=O)N(c2ccc(S(N)(=O)=O)cc2)C1c1ccccc1 (stereo not given),"inconclusive: 28.2 µM [inhibitor, single point]",–
COc1ccc(-c2oc3c(CC=C(C)C)c(O[C@H]4OC(CO)C(O)C(O)C4O)cc(O)c3c(=O)c2O[C@@H]2OC(C)C(O)C(O)C2O)cc1 (stereo not given in full),"inconclusive: 39.8 µM [inhibitor, single point]",–
CC(=O)COc1ccc2c(C)c(C)c(=O)oc2c1,"inconclusive: 28.2 µM [inhibitor, partial curve]",–
CC1CC(C)CN(CCCNC(=O)c2ccc3c(SCC(=O)O)c4c(nc3c2)CCC4)C1 (stereo not given),"inconclusive: 39.8 µM [inhibitor, single point]",–
CCOC(=O)CNC(=O)Nc1ccccc1C(=O)OC,"inconclusive: 35.5 µM [inhibitor, single point]",–
CC1CCCCC1NC(=O)COC(=O)c1ccc(S(=O)(=O)NCc2ccco2)cc1 (stereo not given),–,inactive: -0.582%
Cc1[nH]c2ccccc2c1/C=N/Nc1nncn1N,"inconclusive: 2 µM [inhibitor, partial curve]",–
Cc1cc(NC(=S)Nc2cccc3ccccc23)n[nH]1,"inconclusive: 8.91 µM [inhibitor, full curve]",–
CSc1nnc(-c2sc3cc(C(F)(F)F)cnc3c2-c2ccccc2)n1C,"inconclusive: 28.2 µM [inhibitor, single point]",–

SMILES,Potency,"activity change, negative = inhibition"
CCC(=O)Nc1nc(-c2ccc3c(c2)OCCO3)cs1,–,inactive: -3.99%
CC(C)(C)NC(=O)NC(=O)CN1CCN(c2cccc(Cl)c2)CC1,–,inactive: 3.43%
N#C/C(=C/c1ccc(N2CCOCC2)o1)c1ccc(Br)cc1,"inconclusive: 39.8 µM [inhibitor, single point]",–
CC1(C)CC(=O)C2=C(C1)Nc1ccccc1N=C2,"inconclusive: 25.1 µM [inhibitor, single point]",–
CCOc1ccc(OCC)c(NC(=O)CN(c2ccc(C)cc2)S(=O)(=O)c2c(C)noc2C)c1,–,inactive: -5%
CCN1CCN(C(=O)C(C)Nc2ccc(OC)cc2OC)CC1 (stereo not given),"inconclusive: 12.6 µM [inhibitor, partial curve]",–
Cc1ccc2nc3c(cc(C(=O)NCCCn4ccnc4)n3C)c(=O)n2c1,"inconclusive: 28.2 µM [inhibitor, partial curve]",–
Cc1ccc2cc(C)c(NCCO)nc2c1,"inconclusive: 39.8 µM [inhibitor, single point]",–
COc1ccc(-c2cc(-c3ccc(Br)cc3)nc3ncnn23)cc1OC,"inconclusive: 12.6 µM [inhibitor, partial curve]",–
COc1ccccc1NC(=O)C1=C(C)Nc2ncnn2C1c1ccc(C)o1 (stereo not given),"inconclusive: 31.6 µM [inhibitor, single point]",–
COc1ccc2cc(CN(CC3COCCO3)S(=O)(=O)c3ccc(Cl)cc3)c(=O)[nH]c2c1 (stereo not given),"inconclusive: 0.794 µM [inhibitor, partial curve]",–
CC1(C)CC(=O)N(CC(=O)N2CCN(c3ncccn3)CC2)c2ccccc2S1(=O)=O,"inconclusive: 25.1 µM [inhibitor, partial curve]",–
CC1CN(c2ccccc2)NC1=O (stereo not given),–,inactive: -1.93%
CC(C)N1CCC2(CC1)C(C#N)=C(N)NC(S)=C2C#N,"inconclusive: 31.6 µM [inhibitor, single point]",–
O=C(Nc1ccc2c(c1)OCO2)Nc1cnccn1,"inconclusive: 39.8 µM [inhibitor, single point]",–
Cc1cccn2c(=O)c3cc(C#N)c(=O)n(CC4CCCO4)c3nc12 (stereo not given),"inconclusive: 7.08 µM [inhibitor, partial curve]",–
COc1ccccc1C(=O)Oc1ccc2c(c1)O/C(=C\c1ccncc1)C2=O,"inconclusive: 11.2 µM [inhibitor, partial curve]",–
CCOC(=O)Cc1cc(=O)n2[nH]c(-c3ccccc3)c(-c3ccccc3)c2n1,"inconclusive: 25.1 µM [inhibitor, partial curve]",–
COc1ccccc1Nc1cc(C(=O)N2CCc3ccccc3C2)c2ccccc2n1,"inconclusive: 39.8 µM [inhibitor, single point]",–
CC(=O)Oc1oc(-c2ccccc2)nc1/C=N/c1ccccn1,–,inactive: -1.26%
O=C(O)COc1ccc(/C=C/c2nc3ccc([N+](=O)[O-])cc3s2)cc1,–,inactive: 1.3%
CN(C)c1ccnc(C(=O)O)c1,active: 2.82 µM,–
COc1ccc2cc(-c3cc(C(=O)OCC(=O)Nc4c(C)n(C)n(-c5ccccc5)c4=O)c4ccccc4n3)ccc2c1,"inconclusive: 39.8 µM [inhibitor, single point]",–
CC1(C)CC(=O)N(CC(=O)NCc2ccccc2)c2ccccc2S1(=O)=O,–,inactive: -1.05%

SMILES,Potency,"activity change, negative = inhibition"
COc1ccc(/C=N/NC(=O)c2ccc(Br)cc2)cc1Cn1cc(Cl)cn1,"inconclusive: 25.1 µM [inhibitor, partial curve]",–
CCOC(=O)C(=CNc1cc(C)ccc1-n1cccc1)C(=O)OCC,"inconclusive: 31.6 µM [inhibitor, partial curve]",–
COc1cc(OC)c(OC)cc1CN1CCN(c2ccccc2OC)CC1,"inconclusive: 39.8 µM [inhibitor, single point]",–
COc1ccc2nc(N3CCCC(O)C3)c(C#N)cc2c1 (stereo not given),"inconclusive: 25.1 µM [inhibitor, single point]",–
O/N=C1/CCCSc2ccccc21,–,inactive: -1.62%
CC(C)(C)c1ccc(NC(=O)Nc2ccc(OCC(=O)N3CCOCC3)cc2)cc1,–,inactive: -1.04%
CC(C)CNC(=O)c1ccc(Cl)c(N)c1,"inconclusive: 35.5 µM [inhibitor, single point]",–
CCN(CC)C(=O)COc1ccc2c(c1)C(=O)CC(C)(C)O2,"inconclusive: 28.2 µM [inhibitor, partial curve]",–
C=CC(C1=CC(=O)C(OC)=CC1=O)c1ccc(OC)cc1 (stereo not given),"inconclusive: 1 µM [inhibitor, full curve]",–
COc1ccc(C2C3=C(CCCC3=O)Nc3n[nH]c(C)c32)cc1OC (stereo not given),"inconclusive: 39.8 µM [inhibitor, single point]",–
CCOc1ccccc1C1C(C(=O)Nc2ccccc2OC)=C(C)Nc2nc(CCCO)nn21 (stereo not given),"inconclusive: 39.8 µM [inhibitor, single point]",–
O=C(O)CCc1nc2ccccc2n(CCc2ccccc2)c1=O,"inconclusive: 31.6 µM [inhibitor, partial curve]",–
COc1ccccc1C(=O)Nc1nc2cc3c(cc2s1)OCCO3,"inconclusive: 31.6 µM [inhibitor, partial curve]",–
COc1ccc(N2CCN(C(CNS(=O)(=O)c3ccc4c(c3)OCCO4)c3ccco3)CC2)cc1 (stereo not given),–,inactive: 0.719%
O=c1c(-c2ccco2)[n+]([O-])c2ccccc2n1OCc1ccccc1,"inconclusive: 39.8 µM [inhibitor, single point]",–
COc1ccc(-c2nnc(NC(=O)CSc3ccc(C)cc3)s2)cc1OC,"inconclusive: 6.31 µM [inhibitor, single point]",–
CCOc1ccc(-c2cc(NC(=O)Cn3ncc4c3-c3ccccc3OC4)on2)cc1OCC,"inconclusive: 35.5 µM [inhibitor, single point]",–
COCc1cc(C)n(CC(=O)Nc2ccccc2C(=O)OC)c(=O)c1C#N,"inconclusive: 25.1 µM [inhibitor, partial curve]",–
O=[N+]([O-])c1cc(Cl)ccc1NCCNS(=O)(=O)c1ccccc1,–,inactive: 6.88%
O=CN(/C=C1\Sc2ccccc2C1=O)Cc1ccccc1,"inconclusive: 39.8 µM [inhibitor, single point]",–
Cc1[nH]c2ccccc2c1SCc1ccccc1,–,inactive: -2.57%
NC(=O)c1nc(N2CCOCC2)nc(N2CCOCC2)n1,"inconclusive: 35.5 µM [inhibitor, single point]",–
